In publication PMC4336329 (PLoS ONE, 2015):
The whole screen tested about 310,000 compounds, of which about 2,200 (0.71%) showed an effect of 50% or more. Effects have a minus sign here. The list shows a part of the results.

biological target: human ether-à-go-go-related gene (hERG) potassium channel (human, UniProt Q12809); test: primary screen, population patch clamp on CHO cells stably expressing hERG
Sequence (Q12809 whole entry, looked up): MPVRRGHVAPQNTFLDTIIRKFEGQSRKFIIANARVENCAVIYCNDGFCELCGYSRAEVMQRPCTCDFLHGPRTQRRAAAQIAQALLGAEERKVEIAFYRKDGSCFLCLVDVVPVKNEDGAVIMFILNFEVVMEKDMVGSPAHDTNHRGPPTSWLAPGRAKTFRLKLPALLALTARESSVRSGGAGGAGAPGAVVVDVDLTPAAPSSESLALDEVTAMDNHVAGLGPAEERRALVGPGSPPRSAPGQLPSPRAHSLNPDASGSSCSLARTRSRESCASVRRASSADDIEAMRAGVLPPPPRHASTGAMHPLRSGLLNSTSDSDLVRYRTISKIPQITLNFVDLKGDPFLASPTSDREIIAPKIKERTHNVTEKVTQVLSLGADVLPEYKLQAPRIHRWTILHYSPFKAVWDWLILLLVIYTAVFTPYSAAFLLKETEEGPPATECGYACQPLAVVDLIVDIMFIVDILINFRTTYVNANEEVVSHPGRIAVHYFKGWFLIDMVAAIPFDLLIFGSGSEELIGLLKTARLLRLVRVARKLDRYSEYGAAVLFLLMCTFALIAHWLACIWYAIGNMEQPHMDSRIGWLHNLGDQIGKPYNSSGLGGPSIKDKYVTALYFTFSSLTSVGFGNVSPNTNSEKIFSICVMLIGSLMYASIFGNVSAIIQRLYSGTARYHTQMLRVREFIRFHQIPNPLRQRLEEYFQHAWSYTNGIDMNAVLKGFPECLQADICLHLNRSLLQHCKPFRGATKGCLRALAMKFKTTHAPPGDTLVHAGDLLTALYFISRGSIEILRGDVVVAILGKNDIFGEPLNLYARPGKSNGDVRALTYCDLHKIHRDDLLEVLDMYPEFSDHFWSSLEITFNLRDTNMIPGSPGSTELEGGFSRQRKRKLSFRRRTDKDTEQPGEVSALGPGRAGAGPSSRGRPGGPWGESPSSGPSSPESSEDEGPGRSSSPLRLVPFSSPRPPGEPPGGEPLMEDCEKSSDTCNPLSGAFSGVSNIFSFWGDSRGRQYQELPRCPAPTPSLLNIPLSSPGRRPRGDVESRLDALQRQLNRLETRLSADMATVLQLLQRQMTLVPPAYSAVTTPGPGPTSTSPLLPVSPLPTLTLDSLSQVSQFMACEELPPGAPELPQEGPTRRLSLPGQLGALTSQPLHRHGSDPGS

SMILES | hERG current change (%, negative = inhibition) at 1uM
O=[N+]([O-])c1ccc2nc(C(O)C(O)c3nc4ccc([N+](=O)[O-])cc4[nH]3)[nH]c2c1 (centres unmarked) | 10.7%
Nc1nnc(CC(=O)N/N=C/c2cccc(OCCOc3ccccc3)c2)s1 | 3.68%
Cc1ccc(NS(=O)(=O)c2cccc(C(=O)N/N=C/c3c(C)nn(-c4ccccc4)c3N3CCCC3)c2)c(C)c1 | 7.65%
CCn1c(O)c(C=C2N=c3ccccc3=N2)sc1=S | 14.7%
S=C(NCc1ccco1)N1CCN(c2nc(-c3ccc(Cl)cc3)cs2)CC1 | 2.76%
COCCN1C(=O)N[C@@H](c2cccc(C(F)(F)F)c2)[C@@H](C(=O)OC)[C@H]1C | 14.5%
CCNC(=O)N1c2ccc(OCC)cc2C(C)=CC1(C)C | 2.2%
CCN(C(=O)c1ccc(Cl)cc1[N+](=O)[O-])c1ccccc1C | 5.78%
Cc1ccc(C)c(OCC(=O)Nc2ccc(N3CCOCC3)cc2)c1 | 2.85%
CCOC(=O)Cc1nnc(NC(=O)CSc2nnc3c4ccccc4n(C(C)C)c3n2)s1 | -9.05%
Cc1ccc(-c2nc(N)n(C(=O)c3cccnc3)n2)cc1 | 9.27%
CC1=N/C(=C/c2ccc([N+](=O)[O-])cc2)C(=O)N1c1ccc(Cl)cc1Cl | 16.3%
CCOC(=O)c1nnn(-c2nonc2N)c1CSc1ccccn1 | 6.99%
COc1ccc(Cn2c(-c3ccc(Br)cc3)c[n+]3ccccc23)cc1.[Br-] | 6.43%
Cc1ccc(C(=O)Nc2ccccc2C(=O)O)cc1NC(=O)COc1c(C)cccc1C | 29.3%
C/C(=N/O)c1ccc(Oc2cnccn2)cc1 | -0.64%
Cc1c(NC(=O)c2cc3ccccc3oc2=O)c(=O)n(-c2ccccc2)n1C | -4.35%
CCOc1ccc(CSC(=N)N)cc1[N+](=O)[O-].Cl | -50.3%
O=c1[nH]c(=O)n([C@H]2C[C@H](O)[C@@H](CO)O2)cc1C(F)(F)F | 18%

SMILES | hERG current change (%, negative = inhibition) at 1uM
COc1ccc(N2CCN(S(=O)(=O)c3ccc4c(c3)CCCC4)CC2)c([N+](=O)[O-])c1 | 11.1%
O=C(Nc1cn(-c2ccccc2)nc1-c1cccs1)c1ccco1 | -0.954%
Cn1c(=O)[nH]c(=O)c2c1nc(N1CCCCC1)n2CCSc1ncccn1 | 11.4%
CCC(NC(=O)Nc1nccs1)(C(F)(F)F)C(F)(F)F | 3.1%
O=C(Nc1cccc2ncccc12)C12CC3CC(CC(C3)C1)C2 | 3.5%
CCN1CCCc2cc(CN(CCN3CCOCC3)C(=S)Nc3ccccc3OC)ccc21 | 3.62%
CCc1nc2sc3c(c2c(=O)n1N)CCC3 | 14.6%
CCC(C)C(NC(=O)c1ccccc1NC(=O)c1ccco1)C(=O)O (centres unmarked) | 4.13%
O=C(COC(=O)Cc1ccccc1)Nc1cc(S(=O)(=O)N2CCCCC2)ccc1Cl | -17.8%
CCN(CC(=O)Nc1ccc2c(c1)OCCO2)C(=O)c1cc(Cl)nc2ccccc12 | 1.02%
c1ccc(-n2nnc3ccccc32)cc1 | 5.86%
O=C(CNC(=O)c1ccco1)N/N=C/c1cc(Br)ccc1O | 15.2%
O=C(C[n+]1ccccc1)Nc1nc2ccccc2s1.[Cl-] | 10.3%
O=C(C1Cc2ccccc2CN1C(=O)c1ccccc1)N1CCN(c2ccccc2)CC1 (centres unmarked) | 5.16%
CCCN1Cc2cccc(C(=O)N3CCN(c4ccc(F)cc4)CC3)c2C1=O | 3.75%
COc1ccc(CCN(C)C(=S)NC(=O)c2ccc(F)cc2Cl)cc1OC | 14.8%
CCOc1ccc(C(=O)NCC2CCCO2)cc1OCC (centres unmarked) | 22.7%
Cc1ccc(SC(C)C(=O)Nc2ccccc2C(=O)N2CCOCC2)cc1 (centres unmarked) | 9.24%
CSc1cc(C)n(-c2ccccc2)c(=S)c1C(C)=O | 13.4%

SMILES | hERG current change (%, negative = inhibition) at 1uM
Cc1ccc(NC(=O)CCOc2ccccc2C)cc1F | 13.3%
O=C(COC(=O)c1ccc(Br)o1)Nc1ccc(Br)cc1 | 11%
CCOc1ccc(-n2cccc2C=O)cc1 | -0.381%
Cc1ccc(-c2noc(-c3cc(C(C)(C)C)nn3Cc3ccccc3)n2)cc1 | 11.9%
COc1ccc(COC(=O)CCNC(=O)c2ccc(Cl)cc2)cc1 | -7.35%
COc1ccc(C(=O)c2c(N)sc3c2CCN(C)C3)cc1 | 5.51%
COc1ccc(CN2CCN(S(=O)(=O)c3ccccc3)CC2)c(OC)c1OC | 14.9%
CN1N=C2c3ccccc3CCC2C1c1ccc(F)cc1 (centres unmarked) | 11.4%
Cn1c(=O)c2nc(-c3ccccc3)c(-c3ccccc3)nc2n(C)c1=O | 3.26%
O=C(NC(=S)NCc1ccco1)c1ccccc1[N+](=O)[O-] | 12.6%
COc1ccc(N(C(=O)C(C)C)S(=O)(=O)c2cccs2)cc1 | 1.6%
CCOC(=O)C1(C)NC(c2cc(OC)c(OC)c(OC)c2)C2C(=O)N(CC)C(=O)C21 (centres unmarked) | 7.97%
COc1ccc(/C=C(/C#N)C(=O)Nc2ccc(O)cc2)cc1C(=O)O | 9.58%
COc1nnc(-c2ccc(C)c(S(=O)(=O)NC(C)C)c2)c2ccccc12 | -5.36%
CCOC(=O)N1CCc2c(sc(NC(=O)CN3CCOCC3)c2C(=O)Nc2ccccc2)C1 | -31.9%
CC1Cc2c([nH]c3ccccc23)C(=O)N1 (centres unmarked) | 15.1%
O=C(COc1ccc(Cl)cc1)Nc1ccccc1Cl | 9.01%
CC(=O)/C(=N/Nc1ccc(Br)cc1)Sc1cccc2cccnc12 | 1.12%
